Results taken from paper PMC9926245.
No constants are given. Whether binding was seen depends on the method and setting. Binding seen in cells or lysates may run through a third protein. Some binding calls cover weakened binding; strength is not graded here.

Protein sequences, listed by entry. Tags and fused reporters are not part of them.
UniProt P70288: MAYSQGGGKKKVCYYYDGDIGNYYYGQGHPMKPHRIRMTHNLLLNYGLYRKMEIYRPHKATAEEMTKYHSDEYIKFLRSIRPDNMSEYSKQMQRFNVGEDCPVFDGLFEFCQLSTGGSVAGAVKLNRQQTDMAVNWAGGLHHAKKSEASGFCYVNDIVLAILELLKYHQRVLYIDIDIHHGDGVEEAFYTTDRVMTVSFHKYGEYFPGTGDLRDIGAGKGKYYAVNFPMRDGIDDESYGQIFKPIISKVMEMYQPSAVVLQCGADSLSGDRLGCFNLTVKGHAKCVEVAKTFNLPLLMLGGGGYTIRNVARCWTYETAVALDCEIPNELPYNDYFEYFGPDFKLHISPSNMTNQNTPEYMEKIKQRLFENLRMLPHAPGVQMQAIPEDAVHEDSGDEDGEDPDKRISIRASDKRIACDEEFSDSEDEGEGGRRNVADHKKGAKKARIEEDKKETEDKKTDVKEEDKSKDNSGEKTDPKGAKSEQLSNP
UniProt O09106: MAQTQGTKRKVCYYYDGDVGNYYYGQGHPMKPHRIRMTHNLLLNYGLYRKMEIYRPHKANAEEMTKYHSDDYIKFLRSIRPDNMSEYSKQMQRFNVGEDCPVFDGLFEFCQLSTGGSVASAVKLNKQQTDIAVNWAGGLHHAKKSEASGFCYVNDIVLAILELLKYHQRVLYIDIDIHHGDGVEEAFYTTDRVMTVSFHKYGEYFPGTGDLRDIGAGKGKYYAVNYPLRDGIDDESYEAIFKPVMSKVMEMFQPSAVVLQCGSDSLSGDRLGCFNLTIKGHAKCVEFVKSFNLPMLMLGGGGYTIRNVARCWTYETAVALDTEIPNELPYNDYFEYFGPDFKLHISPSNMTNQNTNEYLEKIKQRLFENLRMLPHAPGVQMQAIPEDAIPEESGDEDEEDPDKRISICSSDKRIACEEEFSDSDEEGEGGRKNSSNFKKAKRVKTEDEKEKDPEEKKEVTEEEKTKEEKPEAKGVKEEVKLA
UniProt B2RWS6: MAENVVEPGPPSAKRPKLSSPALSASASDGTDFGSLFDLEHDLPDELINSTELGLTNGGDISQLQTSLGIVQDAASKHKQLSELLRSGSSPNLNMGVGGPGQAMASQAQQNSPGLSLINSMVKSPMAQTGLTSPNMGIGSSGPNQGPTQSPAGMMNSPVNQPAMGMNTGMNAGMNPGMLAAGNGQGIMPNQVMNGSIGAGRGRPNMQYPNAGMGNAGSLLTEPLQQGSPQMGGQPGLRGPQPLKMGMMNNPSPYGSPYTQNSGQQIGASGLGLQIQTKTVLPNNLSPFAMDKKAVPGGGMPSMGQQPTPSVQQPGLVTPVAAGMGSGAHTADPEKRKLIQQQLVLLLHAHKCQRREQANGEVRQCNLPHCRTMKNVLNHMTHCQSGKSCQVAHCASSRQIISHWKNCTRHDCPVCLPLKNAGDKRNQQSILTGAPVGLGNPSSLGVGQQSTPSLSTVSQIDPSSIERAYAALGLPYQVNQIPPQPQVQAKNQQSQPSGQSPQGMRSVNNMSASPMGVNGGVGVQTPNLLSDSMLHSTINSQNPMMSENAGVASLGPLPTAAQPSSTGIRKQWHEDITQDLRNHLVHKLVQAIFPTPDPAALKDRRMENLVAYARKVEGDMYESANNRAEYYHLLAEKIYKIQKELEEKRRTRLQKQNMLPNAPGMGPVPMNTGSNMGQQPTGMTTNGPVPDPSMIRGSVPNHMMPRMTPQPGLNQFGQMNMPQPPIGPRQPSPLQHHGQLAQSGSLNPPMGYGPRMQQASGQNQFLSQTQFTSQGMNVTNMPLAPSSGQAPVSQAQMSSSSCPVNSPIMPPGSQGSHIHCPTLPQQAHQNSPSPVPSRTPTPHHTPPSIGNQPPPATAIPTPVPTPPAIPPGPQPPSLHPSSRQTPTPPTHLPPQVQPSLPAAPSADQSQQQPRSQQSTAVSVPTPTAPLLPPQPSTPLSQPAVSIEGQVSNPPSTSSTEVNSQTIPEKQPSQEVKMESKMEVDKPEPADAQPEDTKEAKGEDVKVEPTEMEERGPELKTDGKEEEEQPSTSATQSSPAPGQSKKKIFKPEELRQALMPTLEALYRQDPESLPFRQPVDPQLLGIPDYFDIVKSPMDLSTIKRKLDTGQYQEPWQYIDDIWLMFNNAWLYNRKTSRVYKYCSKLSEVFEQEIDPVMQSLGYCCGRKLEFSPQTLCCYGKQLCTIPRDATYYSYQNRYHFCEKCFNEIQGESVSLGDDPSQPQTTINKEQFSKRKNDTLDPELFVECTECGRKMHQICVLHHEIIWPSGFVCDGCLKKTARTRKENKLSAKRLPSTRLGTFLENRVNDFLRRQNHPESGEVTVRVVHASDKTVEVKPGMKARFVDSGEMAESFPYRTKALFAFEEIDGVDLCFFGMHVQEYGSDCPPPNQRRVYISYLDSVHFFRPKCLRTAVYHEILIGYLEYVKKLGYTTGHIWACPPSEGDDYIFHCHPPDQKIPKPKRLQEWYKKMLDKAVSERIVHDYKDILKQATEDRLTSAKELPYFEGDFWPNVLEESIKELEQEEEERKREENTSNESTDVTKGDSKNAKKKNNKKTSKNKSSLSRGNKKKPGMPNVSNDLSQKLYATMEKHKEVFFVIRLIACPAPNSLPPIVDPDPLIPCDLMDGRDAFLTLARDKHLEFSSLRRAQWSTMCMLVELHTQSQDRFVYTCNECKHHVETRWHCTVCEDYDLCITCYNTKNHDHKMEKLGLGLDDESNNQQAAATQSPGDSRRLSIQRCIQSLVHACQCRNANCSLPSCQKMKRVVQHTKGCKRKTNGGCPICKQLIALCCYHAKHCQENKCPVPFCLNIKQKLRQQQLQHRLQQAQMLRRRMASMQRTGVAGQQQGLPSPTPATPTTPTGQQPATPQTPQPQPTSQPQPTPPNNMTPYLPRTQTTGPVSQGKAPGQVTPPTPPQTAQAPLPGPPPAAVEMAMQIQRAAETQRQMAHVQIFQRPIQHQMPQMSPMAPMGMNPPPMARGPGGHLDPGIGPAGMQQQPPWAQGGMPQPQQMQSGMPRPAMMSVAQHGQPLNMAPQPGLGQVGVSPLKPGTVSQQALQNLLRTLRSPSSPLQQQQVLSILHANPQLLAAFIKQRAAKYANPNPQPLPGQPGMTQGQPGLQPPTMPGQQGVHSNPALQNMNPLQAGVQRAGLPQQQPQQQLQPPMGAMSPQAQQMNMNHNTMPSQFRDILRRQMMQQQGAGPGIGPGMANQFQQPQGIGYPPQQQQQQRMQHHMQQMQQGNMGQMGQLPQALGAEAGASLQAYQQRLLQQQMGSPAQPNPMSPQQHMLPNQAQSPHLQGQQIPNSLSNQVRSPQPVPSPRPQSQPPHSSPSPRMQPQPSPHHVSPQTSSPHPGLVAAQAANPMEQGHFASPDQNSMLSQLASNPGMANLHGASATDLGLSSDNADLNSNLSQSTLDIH
UniProt Q60867: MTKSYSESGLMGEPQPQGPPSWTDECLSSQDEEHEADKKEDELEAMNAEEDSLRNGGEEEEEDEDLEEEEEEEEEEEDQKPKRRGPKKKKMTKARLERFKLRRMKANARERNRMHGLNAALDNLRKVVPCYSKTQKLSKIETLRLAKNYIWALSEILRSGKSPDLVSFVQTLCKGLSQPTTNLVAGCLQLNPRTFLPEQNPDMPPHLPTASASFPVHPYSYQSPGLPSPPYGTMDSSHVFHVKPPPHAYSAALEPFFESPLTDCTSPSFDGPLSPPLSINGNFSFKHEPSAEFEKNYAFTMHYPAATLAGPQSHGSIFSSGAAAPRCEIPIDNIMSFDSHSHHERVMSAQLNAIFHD
UniProt Q60987: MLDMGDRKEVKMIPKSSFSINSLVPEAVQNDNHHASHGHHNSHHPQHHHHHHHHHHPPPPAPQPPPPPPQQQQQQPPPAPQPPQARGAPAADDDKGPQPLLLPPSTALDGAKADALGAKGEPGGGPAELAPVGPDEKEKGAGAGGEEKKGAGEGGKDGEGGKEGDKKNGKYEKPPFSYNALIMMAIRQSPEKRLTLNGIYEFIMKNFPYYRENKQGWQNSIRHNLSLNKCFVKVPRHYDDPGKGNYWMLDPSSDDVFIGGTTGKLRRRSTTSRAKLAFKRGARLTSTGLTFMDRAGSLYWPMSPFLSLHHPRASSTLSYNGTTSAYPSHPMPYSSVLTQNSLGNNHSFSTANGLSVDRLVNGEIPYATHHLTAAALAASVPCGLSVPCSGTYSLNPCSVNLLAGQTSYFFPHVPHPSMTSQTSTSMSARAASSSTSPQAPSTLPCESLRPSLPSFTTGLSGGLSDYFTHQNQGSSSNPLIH

How the values were obtained:
[1] = target: HDAC2 (mouse (endogenous in adult hippocampal tissue)) (UniProt P70288); assay: co-IP; co-IP from hippocampal tissue of adult WT animals, immunoblots (n = 1); which protein was precipitated is not told
[2] = target: HDAC1 (mouse (endogenous in adult hippocampal tissue)) (UniProt O09106); assay: as above
[3] = target: EP300 (mouse (endogenous in adult hippocampal tissue)) (UniProt B2RWS6); assay: as above
[4] = target: T1, SIRT1 (mouse (endogenous in adult hippocampal tissue)) (UniProt Q923E4); assay: as above
T1 sequence: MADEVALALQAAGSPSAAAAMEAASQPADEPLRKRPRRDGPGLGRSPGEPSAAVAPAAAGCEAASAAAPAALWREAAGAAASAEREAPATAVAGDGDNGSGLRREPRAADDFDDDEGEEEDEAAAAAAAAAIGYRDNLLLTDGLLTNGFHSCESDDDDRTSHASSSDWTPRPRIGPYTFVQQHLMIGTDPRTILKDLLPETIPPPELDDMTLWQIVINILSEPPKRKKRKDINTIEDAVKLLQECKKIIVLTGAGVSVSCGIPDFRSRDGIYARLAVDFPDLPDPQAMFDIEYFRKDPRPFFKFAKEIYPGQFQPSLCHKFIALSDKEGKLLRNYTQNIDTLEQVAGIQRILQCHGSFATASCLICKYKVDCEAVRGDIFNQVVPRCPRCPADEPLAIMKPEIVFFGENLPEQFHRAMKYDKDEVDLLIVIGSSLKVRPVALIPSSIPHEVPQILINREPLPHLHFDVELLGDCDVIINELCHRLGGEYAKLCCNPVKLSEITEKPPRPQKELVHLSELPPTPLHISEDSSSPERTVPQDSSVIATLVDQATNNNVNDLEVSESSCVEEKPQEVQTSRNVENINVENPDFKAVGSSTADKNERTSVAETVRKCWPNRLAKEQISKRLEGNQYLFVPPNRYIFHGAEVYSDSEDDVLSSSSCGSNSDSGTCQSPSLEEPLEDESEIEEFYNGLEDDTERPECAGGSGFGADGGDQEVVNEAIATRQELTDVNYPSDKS

[5] = target: NEUROD1 (mouse (endogenous in adult hippocampus and primary hippocampal neurons)) (UniProt Q60867); assay: co-IP; NEUROD1 immunoprecipitation, immunoblot of FOXG1; primary hippocampal neurons (in vitro) (n = 1)
[6] = target: NEUROD1 (mouse (endogenous in adult hippocampus and primary hippocampal neurons)) (UniProt Q60867); assay: co-IP; NEUROD1 immunoprecipitation, immunoblot of FOXG1; adult hippocampus (in vivo) (n = 1)

With “Forkhead box G1 (FOXG1) (from UniProt Q60987 1-481)” the binding [1] was “binds”, the binding [2] was “binds” and the binding [3] was “no binding”. For the same substance, the binding [4] was “binds”, the binding [5] was “binds” and the binding [6] was “binds”.
